# The list shows a part of the results.
# Columns and labels:
# Assay in all cases: glycan array binding signal (z-score within array); higher = stronger binding
# Settings in all cases: glycan notation: IUPAC condensed, linker removed
# [1] = molecular target: Neu5Ac(a2-3)Gal(b1-4)GlcNAc(b1-2)Man(a1-3)[GlcNAc(b1-2)Man(b1-4)GlcNAc(b1-2)Man(a1-6)]Man(b1-4)GlcNAc(b1-4)GlcNAc
# In short: (§1)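 From the Consortium for Functional Glycomics database, 3228 arrays were curated, keeping only those whose protein sequence was available. Binding is given as a within-array Z-score averaged across arrays sharing a protein sequence and across linkers. Negative Z-scores can be read as non-binding.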
# [2] = molecular target: Neu5Ac(a2-3)Gal(b1-4)GlcNAc(b1-2)Man(a1-3)[Neu5Ac(a2-6)Gal(b1-4)GlcNAc(b1-2)Man(a1-6)]Man(b1-4)GlcNAc(b1-4)GlcNAc
# In short: as §1
# [3] = molecular target: Neu5Ac(a2-3)Gal(b1-4)GlcNAc(b1-3)Gal(b1-3)GlcNAc
# In short: as §1
# [4] = molecular target: Neu5Ac(a2-3)Gal(b1-4)GlcNAc(b1-3)Gal(b1-4)GlcNAc
# In short: as §1
# [5] = molecular target: Neu5Ac(a2-3)Gal(b1-4)GlcNAc(b1-3)Gal(b1-4)GlcNAc(b1-3)Gal(b1-4)GlcNAc
# In short: as §1
# [6] = molecular target: Neu5Ac(a2-3)Gal(b1-4)GlcNAc(b1-3)Gal(b1-4)[Fuc(a1-3)]GlcNAc
# In short: as §1
# [7] = molecular target: Neu5Ac(a2-3)Gal(b1-4)GlcNAc(b1-3)GalNAc
# In short: as §1
# [8] = molecular target: Neu5Ac(a2-3)Gal(b1-4)GlcNAc(b1-6)[Gal(b1-3)]GalNAc
# In short: as §1
# [9] = molecular target: Neu5Ac(a2-3)Gal(b1-4)GlcNAc(b1-6)[Neu5Ac(a2-3)Gal(b1-3)]GalNAc
# In short: as §1
# [10] = molecular target: Neu5Ac(a2-3)Gal(b1-4)GlcNAc6S
# In short: as §1
# [11] = molecular target: Neu5Ac(a2-3)Gal(b1-4)[Fuc(a1-3)]GlcNAc
# In short: as §1
# [12] = molecular target: Neu5Ac(a2-3)Gal(b1-4)[Fuc(a1-3)]GlcNAc(b1-3)Gal
# In short: as §1
# [13] = molecular target: Neu5Ac(a2-3)Gal(b1-4)[Fuc(a1-3)]GlcNAc(b1-3)Gal(b1-4)GlcNAc
# In short: as §1
# [14] = molecular target: Neu5Ac(a2-3)Gal(b1-4)[Fuc(a1-3)]GlcNAc(b1-3)Gal(b1-4)[Fuc(a1-3)]GlcNAc(b1-3)Gal(b1-4)[Fuc(a1-3)]GlcNAc
# In short: as §1
# [15] = molecular target: Neu5Ac(a2-3)Gal(b1-4)[Fuc(a1-3)]GlcNAc(b1-3)GalNAc
# In short: as §1
# [16] = molecular target: Neu5Ac(a2-3)Gal(b1-4)[Fuc(a1-3)]GlcNAc(b1-6)[Gal(b1-3)]GalNAc
# In short: as §1
# [17] = molecular target: Neu5Ac(a2-3)Gal(b1-4)[Fuc(a1-3)]GlcNAc(b1-6)[Neu5Ac(a2-3)Gal(b1-3)]GalNAc
# In short: as §1
# [18] = molecular target: Neu5Ac(a2-3)Gal(b1-4)[Fuc(a1-3)]GlcNAc6S
# In short: as §1
# [19] = molecular target: Neu5Ac(a2-3)Gal6S(b1-4)GlcNAc
# In short: as §1
# [20] = molecular target: Neu5Ac(a2-3)Gal6S(b1-4)[Fuc(a1-3)]GlcNAc
# In short: as §1
# [21] = molecular target: Neu5Ac(a2-3)GalNAc
# In short: as §1
# [22] = molecular target: Neu5Ac(a2-3)GalNAc(b1-4)GlcNAc
# In short: as §1
# [23] = molecular target: Neu5Ac(a2-3)[GalNAc(b1-4)]Gal(b1-4)Glc
# In short: as §1
# [24] = molecular target: Neu5Ac(a2-3)[GalNAc(b1-4)]Gal(b1-4)GlcNAc
# In short: as §1
# [25] = molecular target: Neu5Ac(a2-3)[GalNAc(b1-4)]Gal(b1-4)GlcNAc(b1-3)GalNAc
# In short: as §1
# [26] = molecular target: Neu5Ac(a2-3)[Neu5Ac(a2-6)]GalNAc
# In short: as §1
# [27] = molecular target: Neu5Ac(a2-6)Gal
# In short: as §1
# [28] = molecular target: Neu5Ac(a2-6)Gal(b1-4)Glc
# In short: as §1
# [29] = molecular target: Neu5Ac(a2-6)Gal(b1-4)GlcNAc
# In short: as §1
# [30] = molecular target: Neu5Ac(a2-6)Gal(b1-4)GlcNAc(b1-2)Man(a1-3)Man(b1-4)GlcNAc(b1-4)GlcNAc
# In short: as §1
# [31] = molecular target: Neu5Ac(a2-6)Gal(b1-4)GlcNAc(b1-2)Man(a1-3)[Gal(b1-4)GlcNAc(b1-2)Man(a1-6)]Man(b1-4)GlcNAc(b1-4)GlcNAc
# In short: as §1
# [32] = molecular target: Neu5Ac(a2-6)Gal(b1-4)GlcNAc(b1-2)Man(a1-3)[GlcNAc(b1-2)Man(a1-6)]Man(b1-4)GlcNAc(b1-4)GlcNAc
# In short: as §1
# [33] = molecular target: Neu5Ac(a2-6)Gal(b1-4)GlcNAc(b1-2)Man(a1-3)[GlcNAc(b1-2)Man(b1-4)GlcNAc(b1-2)Man(a1-6)]Man(b1-4)GlcNAc(b1-4)GlcNAc
# In short: as §1
# [34] = molecular target: Neu5Ac(a2-6)Gal(b1-4)GlcNAc(b1-2)Man(a1-3)[Man(a1-6)]Man(b1-4)GlcNAc(b1-4)GlcNAc
# In short: as §1
# [35] = molecular target: Neu5Ac(a2-6)Gal(b1-4)GlcNAc(b1-2)Man(a1-3)[Neu5Ac(a2-6)Gal(b1-4)GlcNAc(b1-2)Man(a1-6)]Man(b1-4)GlcNAc(b1-4)GlcNAc
# In short: as §1
# [36] = molecular target: Neu5Ac(a2-6)Gal(b1-4)GlcNAc(b1-2)Man(a1-6)Man(b1-4)GlcNAc(b1-4)GlcNAc
# In short: as §1
# [37] = molecular target: Neu5Ac(a2-6)Gal(b1-4)GlcNAc(b1-2)Man(a1-6)[Gal(b1-4)GlcNAc(b1-2)Man(a1-3)]Man(b1-4)GlcNAc(b1-4)GlcNAc
# In short: as §1
# [38] = molecular target: Neu5Ac(a2-6)Gal(b1-4)GlcNAc(b1-2)Man(a1-6)[GlcNAc(b1-2)Man(a1-3)]Man(b1-4)GlcNAc(b1-4)GlcNAc
# In short: as §1
# [39] = molecular target: Neu5Ac(a2-6)Gal(b1-4)GlcNAc(b1-2)Man(a1-6)[Man(a1-3)]Man(b1-4)GlcNAc(b1-4)GlcNAc
# In short: as §1
# [40] = molecular target: Neu5Ac(a2-6)Gal(b1-4)GlcNAc(b1-3)Gal(b1-3)GlcNAc
# In short: as §1
# [41] = molecular target: Neu5Ac(a2-6)Gal(b1-4)GlcNAc(b1-3)Gal(b1-4)GlcNAc
# In short: as §1
# [42] = molecular target: Neu5Ac(a2-6)Gal(b1-4)GlcNAc(b1-3)Gal(b1-4)GlcNAc(b1-3)Gal(b1-4)GlcNAc
# In short: as §1
# [43] = molecular target: Neu5Ac(a2-6)Gal(b1-4)GlcNAc(b1-3)Gal(b1-4)[Fuc(a1-3)]GlcNAc(b1-3)Gal(b1-4)[Fuc(a1-3)]GlcNAc
# In short: as §1
# [44] = molecular target: Neu5Ac(a2-6)Gal(b1-4)GlcNAc(b1-3)GalNAc
# In short: as §1
# [45] = molecular target: Neu5Ac(a2-6)Gal(b1-4)GlcNAc6S
# In short: as §1
binder,measurement,setting,value
"Tachylectin-2 (Tachypleus tridentatus), TAL2_TACTR (protein) VGGESMLRGVYQDKFYQGTYPQNKNDNWLARATLIGKGGWSNFKFLFLSPGGELYGVLNDKIYKGTPPTHDNDNWMGRAKKIGNGGWNQFQFLFFDPNGYLYAVSKDKLYKASPPQSDTDNWIARATEIGSGGWSGFKFLFFHPNGYLYAVHGQQFYKALPPVSNQDNWLARATKIGQGGWDTFKFLFFSSVGTLFGVQGGKFYEDYPPSYAHDNWLARAKLIGNGGWDDFRFLFF",glycan array binding signal (z-score),[1],-0.298
same,glycan array binding signal (z-score),[2],-0.326
same,glycan array binding signal (z-score),[3],-0.256
same,glycan array binding signal (z-score),[4],-0.086
same,glycan array binding signal (z-score),[5],-0.366
same,glycan array binding signal (z-score),[6],-0.429
same,glycan array binding signal (z-score),[7],-0.295
same,glycan array binding signal (z-score),[8],-0.037
same,glycan array binding signal (z-score),[9],-0.197
same,glycan array binding signal (z-score),[10],-0.232
same,glycan array binding signal (z-score),[11],-0.257
same,glycan array binding signal (z-score),[12],-0.301
same,glycan array binding signal (z-score),[13],-0.31
same,glycan array binding signal (z-score),[14],-0.124
same,glycan array binding signal (z-score),[15],-0.266
same,glycan array binding signal (z-score),[16],-0.301
same,glycan array binding signal (z-score),[17],-0.291
same,glycan array binding signal (z-score),[18],-0.281
same,glycan array binding signal (z-score),[19],-0.198
same,glycan array binding signal (z-score),[20],-0.328
same,glycan array binding signal (z-score),[21],-0.361
same,glycan array binding signal (z-score),[22],-0.263
same,glycan array binding signal (z-score),[23],-0.428
same,glycan array binding signal (z-score),[24],-0.385
same,glycan array binding signal (z-score),[25],-0.284
same,glycan array binding signal (z-score),[26],-0.11
same,glycan array binding signal (z-score),[27],-0.213
same,glycan array binding signal (z-score),[28],-0.278
same,glycan array binding signal (z-score),[29],-0.176
same,glycan array binding signal (z-score),[30],-0.293
same,glycan array binding signal (z-score),[31],-0.358
same,glycan array binding signal (z-score),[32],-0.363
same,glycan array binding signal (z-score),[33],-0.339
same,glycan array binding signal (z-score),[34],-0.295
same,glycan array binding signal (z-score),[35],-0.245
same,glycan array binding signal (z-score),[36],-0.295
same,glycan array binding signal (z-score),[37],-0.344
same,glycan array binding signal (z-score),[38],-0.342
same,glycan array binding signal (z-score),[39],-0.294
same,glycan array binding signal (z-score),[40],-0.297
same,glycan array binding signal (z-score),[41],-0.249
same,glycan array binding signal (z-score),[42],-0.294
same,glycan array binding signal (z-score),[43],-0.327
same,glycan array binding signal (z-score),[44],-0.296
same,glycan array binding signal (z-score),[45],-0.143
